Assay results: patent publication US20110136811A1, “PROKINETICIN 1 RECEPTOR” (published 2011)

Biological target: rat PK1 receptor, endogenous in rat ileum (rat, UniProt Q8R416)
Test: cell-based or functional assay

EC50 of the PK1-evoked increase in Isc, rat ileum mucosa: ~8.2 nM
B1: PK1 ligand preparation (recombinant human Prokineticin 1 after enterokinase removal of the N-terminal FLAG tag) (ligand)
chain: AVITGACERDVQCGAGTCCAISLWLRGLRMCTPLGREGEECHPGSHKVPFFRKRKHHTCPCLPNLLCSRFPDGRYRCSMDLKNINF
